# Data published in ChEMBL document CHEMBL5252509, “In depth analysis of kinase cross screening data to identify chemical starting points for inhibition of the Nek family of kinases” (Medchemcomm, 2018).
# Key:
# [1] = target: T1, Serine/threonine-protein kinase Nek3 (Homo sapiens) (UniProt P51956); test: Inhibition of NEK3 (unknown origin) at 1 uM relative to control
# T1 sequence (whole entry): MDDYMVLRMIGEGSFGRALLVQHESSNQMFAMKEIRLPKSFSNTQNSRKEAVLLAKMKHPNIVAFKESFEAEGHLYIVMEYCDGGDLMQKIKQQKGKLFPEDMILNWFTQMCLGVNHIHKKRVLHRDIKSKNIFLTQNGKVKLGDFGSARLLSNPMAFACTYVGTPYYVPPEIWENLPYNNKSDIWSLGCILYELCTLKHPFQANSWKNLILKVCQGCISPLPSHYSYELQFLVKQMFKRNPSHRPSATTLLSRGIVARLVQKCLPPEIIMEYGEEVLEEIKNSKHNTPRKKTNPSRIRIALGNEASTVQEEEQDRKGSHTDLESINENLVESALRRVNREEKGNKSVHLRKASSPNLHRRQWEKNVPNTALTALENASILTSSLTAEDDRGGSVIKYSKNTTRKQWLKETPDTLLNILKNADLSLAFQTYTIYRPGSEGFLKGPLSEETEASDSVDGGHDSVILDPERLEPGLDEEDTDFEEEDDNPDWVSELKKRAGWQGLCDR
# [2] = target: Serine/threonine-protein kinase Nek7 (Homo sapiens) (UniProt Q8TDX7); test: Inhibition of NEK7 (unknown origin) at 1 uM relative to control
# Chain of UniProt Q8TDX7 (Q8TDX7 whole entry, looked up): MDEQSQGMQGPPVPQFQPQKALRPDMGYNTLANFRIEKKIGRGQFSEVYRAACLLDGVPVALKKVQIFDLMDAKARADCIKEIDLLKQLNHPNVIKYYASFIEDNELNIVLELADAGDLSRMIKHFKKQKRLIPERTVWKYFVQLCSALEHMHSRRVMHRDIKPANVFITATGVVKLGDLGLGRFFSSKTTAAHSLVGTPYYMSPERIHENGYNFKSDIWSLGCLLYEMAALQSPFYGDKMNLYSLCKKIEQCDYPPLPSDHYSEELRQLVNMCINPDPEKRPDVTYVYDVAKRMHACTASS
# [3] = target: T2, Serine/threonine-protein kinase Nek5 (Homo sapiens) (UniProt Q6P3R8); test: Inhibition of NEK5 (unknown origin) at 1 uM relative to control
# T2 sequence (whole entry): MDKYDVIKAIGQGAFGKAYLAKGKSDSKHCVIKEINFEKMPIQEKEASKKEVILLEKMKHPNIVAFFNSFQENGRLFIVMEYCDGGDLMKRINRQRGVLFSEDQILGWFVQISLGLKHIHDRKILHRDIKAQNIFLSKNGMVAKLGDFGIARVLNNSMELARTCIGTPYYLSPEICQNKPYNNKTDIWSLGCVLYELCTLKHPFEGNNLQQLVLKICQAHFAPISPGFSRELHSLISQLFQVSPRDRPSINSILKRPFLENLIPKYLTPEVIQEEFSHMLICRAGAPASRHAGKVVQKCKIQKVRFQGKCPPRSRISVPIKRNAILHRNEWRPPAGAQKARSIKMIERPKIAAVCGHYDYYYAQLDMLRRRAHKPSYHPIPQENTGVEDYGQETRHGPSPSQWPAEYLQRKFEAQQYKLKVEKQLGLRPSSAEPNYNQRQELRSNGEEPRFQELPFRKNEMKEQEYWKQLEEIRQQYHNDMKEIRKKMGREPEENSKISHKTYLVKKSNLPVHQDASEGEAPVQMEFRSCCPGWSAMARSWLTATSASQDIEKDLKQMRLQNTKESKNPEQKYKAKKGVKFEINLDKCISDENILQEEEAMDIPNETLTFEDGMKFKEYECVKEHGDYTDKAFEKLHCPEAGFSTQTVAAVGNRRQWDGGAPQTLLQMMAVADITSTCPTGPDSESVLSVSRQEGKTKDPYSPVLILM
# [4] = target: T3, Serine/threonine-protein kinase Nek6 (Homo sapiens) (UniProt Q9HC98); test: Inhibition of NEK6 (unknown origin) at 1 uM relative to control
# T3 sequence (whole entry): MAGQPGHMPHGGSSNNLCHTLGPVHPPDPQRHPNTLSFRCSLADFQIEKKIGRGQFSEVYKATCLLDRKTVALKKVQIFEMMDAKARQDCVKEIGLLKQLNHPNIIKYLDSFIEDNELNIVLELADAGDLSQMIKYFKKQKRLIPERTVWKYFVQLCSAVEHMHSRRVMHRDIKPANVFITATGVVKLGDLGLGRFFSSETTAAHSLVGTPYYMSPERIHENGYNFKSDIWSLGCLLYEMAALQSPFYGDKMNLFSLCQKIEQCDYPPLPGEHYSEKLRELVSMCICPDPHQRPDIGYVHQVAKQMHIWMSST
# [5] = target: T4, Serine/threonine-protein kinase Nek2 (Homo sapiens) (UniProt P51955); test: Inhibition of NEK2 (unknown origin) at 1 uM relative to control
# T4 sequence (whole entry): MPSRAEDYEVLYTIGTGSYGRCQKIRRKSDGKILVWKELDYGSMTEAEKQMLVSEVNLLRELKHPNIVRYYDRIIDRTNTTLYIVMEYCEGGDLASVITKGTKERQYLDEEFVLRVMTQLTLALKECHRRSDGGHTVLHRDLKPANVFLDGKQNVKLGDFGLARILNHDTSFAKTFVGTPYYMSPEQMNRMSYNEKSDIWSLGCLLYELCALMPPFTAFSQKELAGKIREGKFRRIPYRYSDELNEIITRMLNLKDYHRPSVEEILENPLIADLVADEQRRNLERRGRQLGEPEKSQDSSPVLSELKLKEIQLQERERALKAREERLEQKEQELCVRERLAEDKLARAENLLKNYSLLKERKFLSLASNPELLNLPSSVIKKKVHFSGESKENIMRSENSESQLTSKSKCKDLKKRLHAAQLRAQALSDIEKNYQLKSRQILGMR
# [6] = target: T5, Serine/threonine-protein kinase Nek11 (Homo sapiens) (UniProt Q8NG66); test: Inhibition of NEK11 (unknown origin) at 1 uM relative to control
# T5 sequence (whole entry): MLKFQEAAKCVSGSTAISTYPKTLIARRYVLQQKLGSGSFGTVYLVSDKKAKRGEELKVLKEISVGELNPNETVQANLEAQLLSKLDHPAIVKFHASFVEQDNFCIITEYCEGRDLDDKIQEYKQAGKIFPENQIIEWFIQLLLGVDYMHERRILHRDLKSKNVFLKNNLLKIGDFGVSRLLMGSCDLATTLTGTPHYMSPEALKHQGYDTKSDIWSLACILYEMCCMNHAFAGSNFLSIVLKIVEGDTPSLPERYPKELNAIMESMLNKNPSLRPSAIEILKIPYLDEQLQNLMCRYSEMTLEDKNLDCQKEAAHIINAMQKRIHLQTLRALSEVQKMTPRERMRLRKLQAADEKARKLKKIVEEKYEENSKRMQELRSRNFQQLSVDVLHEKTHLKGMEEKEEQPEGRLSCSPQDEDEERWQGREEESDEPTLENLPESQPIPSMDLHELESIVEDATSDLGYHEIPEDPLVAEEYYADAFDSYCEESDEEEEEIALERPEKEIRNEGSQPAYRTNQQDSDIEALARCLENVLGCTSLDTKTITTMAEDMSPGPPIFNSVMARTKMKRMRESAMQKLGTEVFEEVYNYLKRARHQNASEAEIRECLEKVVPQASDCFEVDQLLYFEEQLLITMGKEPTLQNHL
# [7] = target: T6, Serine/threonine-protein kinase Nek10 (Homo sapiens) (UniProt Q6ZWH5); test: Inhibition of NEK10 (unknown origin) at 1 uM relative to control
# T6 sequence (whole entry): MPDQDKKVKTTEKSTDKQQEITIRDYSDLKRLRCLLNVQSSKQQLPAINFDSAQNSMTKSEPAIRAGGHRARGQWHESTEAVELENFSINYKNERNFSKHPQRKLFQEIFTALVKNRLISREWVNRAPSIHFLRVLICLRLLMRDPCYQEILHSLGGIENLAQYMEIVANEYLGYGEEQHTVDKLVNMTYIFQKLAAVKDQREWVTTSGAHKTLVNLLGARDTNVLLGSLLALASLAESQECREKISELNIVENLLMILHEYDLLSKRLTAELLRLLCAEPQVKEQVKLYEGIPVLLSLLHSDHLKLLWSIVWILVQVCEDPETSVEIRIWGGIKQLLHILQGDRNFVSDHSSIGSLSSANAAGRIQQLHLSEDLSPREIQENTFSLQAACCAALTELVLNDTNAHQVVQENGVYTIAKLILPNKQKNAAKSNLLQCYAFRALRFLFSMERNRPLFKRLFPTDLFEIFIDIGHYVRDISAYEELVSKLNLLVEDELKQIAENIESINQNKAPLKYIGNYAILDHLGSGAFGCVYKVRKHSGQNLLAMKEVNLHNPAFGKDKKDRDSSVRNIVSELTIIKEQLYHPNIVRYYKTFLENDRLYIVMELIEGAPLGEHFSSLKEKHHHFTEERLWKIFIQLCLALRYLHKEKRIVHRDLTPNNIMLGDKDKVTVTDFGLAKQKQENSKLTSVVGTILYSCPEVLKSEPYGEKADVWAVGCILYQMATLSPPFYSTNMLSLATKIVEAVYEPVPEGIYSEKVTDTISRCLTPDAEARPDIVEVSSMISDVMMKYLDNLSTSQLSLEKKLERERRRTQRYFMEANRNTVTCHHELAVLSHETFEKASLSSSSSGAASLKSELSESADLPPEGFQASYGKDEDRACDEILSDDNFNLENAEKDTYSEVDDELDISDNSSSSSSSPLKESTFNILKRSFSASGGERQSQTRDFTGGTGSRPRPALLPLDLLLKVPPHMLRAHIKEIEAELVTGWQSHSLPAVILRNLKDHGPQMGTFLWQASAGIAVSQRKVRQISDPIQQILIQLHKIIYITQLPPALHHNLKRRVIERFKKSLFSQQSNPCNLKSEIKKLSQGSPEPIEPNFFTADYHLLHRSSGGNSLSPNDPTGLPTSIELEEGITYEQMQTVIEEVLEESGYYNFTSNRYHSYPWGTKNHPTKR
# [8] = target: T7, Serine/threonine-protein kinase Nek9 (Homo sapiens) (UniProt Q8TD19); test: Inhibition of NEK9 (unknown origin) at 1 uM relative to control
# T7 sequence (whole entry): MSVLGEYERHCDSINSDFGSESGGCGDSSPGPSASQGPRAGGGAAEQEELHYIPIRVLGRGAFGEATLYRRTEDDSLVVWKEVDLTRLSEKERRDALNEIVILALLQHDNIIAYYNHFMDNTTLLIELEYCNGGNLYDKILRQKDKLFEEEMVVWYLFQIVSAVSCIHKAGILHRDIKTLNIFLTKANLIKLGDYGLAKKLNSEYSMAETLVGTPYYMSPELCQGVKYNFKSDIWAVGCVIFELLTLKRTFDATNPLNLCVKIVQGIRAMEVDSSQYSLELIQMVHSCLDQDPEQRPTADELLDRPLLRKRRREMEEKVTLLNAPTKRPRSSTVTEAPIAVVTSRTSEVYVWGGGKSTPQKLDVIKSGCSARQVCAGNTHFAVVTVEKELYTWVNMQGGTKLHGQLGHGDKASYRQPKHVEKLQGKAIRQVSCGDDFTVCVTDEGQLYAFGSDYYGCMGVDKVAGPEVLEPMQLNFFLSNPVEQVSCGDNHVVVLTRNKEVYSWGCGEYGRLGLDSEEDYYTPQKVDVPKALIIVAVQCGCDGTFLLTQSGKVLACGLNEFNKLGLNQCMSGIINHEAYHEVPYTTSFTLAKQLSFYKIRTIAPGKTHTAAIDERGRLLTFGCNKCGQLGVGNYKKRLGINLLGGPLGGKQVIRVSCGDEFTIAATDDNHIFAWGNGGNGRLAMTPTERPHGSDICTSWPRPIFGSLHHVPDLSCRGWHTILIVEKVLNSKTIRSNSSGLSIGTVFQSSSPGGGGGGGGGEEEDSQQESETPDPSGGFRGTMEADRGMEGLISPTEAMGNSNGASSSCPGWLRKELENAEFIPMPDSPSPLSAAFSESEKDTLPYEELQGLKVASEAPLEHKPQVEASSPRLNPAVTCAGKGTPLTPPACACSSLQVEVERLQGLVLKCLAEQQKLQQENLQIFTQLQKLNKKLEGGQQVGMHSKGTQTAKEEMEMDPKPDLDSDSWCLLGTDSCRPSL
SMILES,inhibition [1] [%],inhibition [2] [%],inhibition [3] [%],inhibition [4] [%],inhibition [5] [%],inhibition [6] [%],inhibition [7] [%],inhibition [8] [%]
O=C1NC(=O)C(c2ccc(Cl)cc2)=C1Nc1cccc(O)c1,11,10,0,0,12,0,50,0
O=C1NC(=O)C(c2ccc(Cl)cc2)=C1Nc1ccc(O)c(Cl)c1,29,0,0,10,3,0,55,0
O=C1NC(=O)C(c2ccccc2)=C1Nc1cc(Cl)c(O)c(Cl)c1,0,0,0,3,7,0,52,0
O=C1NC(=O)C(c2ccc(Cl)cc2)=C1Nc1cccc(C(=O)O)c1,17,0,17,0,0,0,55,0
O=C1NC(=O)C(c2ccccc2)=C1Nc1ccc(Cl)c(C(=O)O)c1,10,0,4,0,6,37,88,36
O=C1NC(=O)C(c2ccccc2)=C1Nc1ccccc1,21,0,0,0,0,4,7,0
O=C1NC(=O)C(c2ccccc2Cl)=C1Nc1cccc(C(=O)O)c1,7,0,2,0,0,5,6,26
O=C1NC(=O)C(c2ccccc2Cl)=C1Nc1ccccc1,0,1,0,0,73,26,56,14
